Laboratory results published in paper PMC4336329 (PLoS ONE, 2015).
Screen size: about 310,000 compounds; about 14,000 (4.5%) showed an effect of 50% or more. The effect is printed as a negative number. Some of the results follow.

Molecular target: human ether-à-go-go-related gene (hERG) potassium channel (human, UniProt Q12809)
Assay: primary screen, population patch clamp on CHO cells stably expressing hERG
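Also: peak tail current of the secondary pulse compared with the same well before compound.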

Sequence of human ether-à-go-go-related gene (hERG) potassium channel (Q12809 whole entry, looked up): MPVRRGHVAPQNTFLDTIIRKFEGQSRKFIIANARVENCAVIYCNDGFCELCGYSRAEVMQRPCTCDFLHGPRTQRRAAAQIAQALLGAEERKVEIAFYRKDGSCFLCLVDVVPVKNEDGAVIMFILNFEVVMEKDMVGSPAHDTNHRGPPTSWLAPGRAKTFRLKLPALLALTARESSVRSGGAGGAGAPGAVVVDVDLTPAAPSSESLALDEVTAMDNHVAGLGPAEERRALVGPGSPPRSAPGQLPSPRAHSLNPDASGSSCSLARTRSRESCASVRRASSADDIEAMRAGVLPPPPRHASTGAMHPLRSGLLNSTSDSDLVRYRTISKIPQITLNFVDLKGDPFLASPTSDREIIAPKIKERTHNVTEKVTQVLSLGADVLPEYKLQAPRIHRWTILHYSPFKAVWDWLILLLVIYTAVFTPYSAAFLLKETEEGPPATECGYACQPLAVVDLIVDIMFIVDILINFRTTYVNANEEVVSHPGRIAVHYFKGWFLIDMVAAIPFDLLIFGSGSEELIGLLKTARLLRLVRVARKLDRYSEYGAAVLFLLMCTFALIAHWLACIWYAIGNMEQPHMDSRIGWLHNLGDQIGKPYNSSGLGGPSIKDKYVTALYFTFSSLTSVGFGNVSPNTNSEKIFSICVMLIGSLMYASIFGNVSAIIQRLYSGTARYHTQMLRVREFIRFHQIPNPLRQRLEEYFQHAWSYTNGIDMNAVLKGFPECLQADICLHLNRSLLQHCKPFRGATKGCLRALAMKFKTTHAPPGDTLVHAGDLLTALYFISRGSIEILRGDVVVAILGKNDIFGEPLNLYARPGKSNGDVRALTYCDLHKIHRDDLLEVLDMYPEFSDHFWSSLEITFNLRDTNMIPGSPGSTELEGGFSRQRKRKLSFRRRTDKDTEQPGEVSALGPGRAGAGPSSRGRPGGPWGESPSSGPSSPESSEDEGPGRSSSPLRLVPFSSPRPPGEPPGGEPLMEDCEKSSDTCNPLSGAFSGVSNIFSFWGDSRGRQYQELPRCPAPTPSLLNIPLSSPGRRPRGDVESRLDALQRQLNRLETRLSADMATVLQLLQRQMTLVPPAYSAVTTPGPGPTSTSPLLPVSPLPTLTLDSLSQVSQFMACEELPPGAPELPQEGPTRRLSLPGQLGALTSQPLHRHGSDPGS

Row | Structure (SMILES) | hERG current change (%, negative = inhibition) at 10uM [%]
1 | CCN(CC)Cc1c(C(=O)N/N=C/c2cccs2)nnn1-c1nonc1N | -47.4
2 | CN(C)C(CNC(=O)c1ccccc1OCc1ccc(Cl)cc1)c1ccco1 (stereo not shown) | -60.3
3 | Cc1cc(OCCCN2CCN(Cc3ccccc3)CC2)ccc1[N+](=O)[O-].O=C(O)C(=O)O | -71.5
4 | Cc1cc(C)c(NC(=O)CN2C(=O)NC(Cc3ccccc3)C2=O)c(C)c1 (stereo not shown) | 9.29
5 | CCOC(=O)Cn1nc(C)n(-c2ccccc2)c1=O | -6.25
6 | O=S(=O)(/N=C/c1ccccc1O)c1cccs1 | 3.75
7 | OC(C#CCN1CCCCC1)(c1ccccc1)c1ccccc1 | -24.6
8 | CSc1nc2nc3c(cc2c(=O)n1-c1ccccc1C)COC(C)(C)C3 | -21.6
9 | Cc1ccc(C2=NOC(C)(c3nnc(-c4ccncc4)o3)C2)cc1 (stereo not shown) | 7.48
10 | CS(=O)(=O)O.OC(CCN1CCCCC1)(c1ccccc1)c1ccccc1 | -36.2
11 | CCCc1nc2oc3c(Cl)ncnc3c2c2c1CCCC2 | 8.03
12 | CC(=O)c1c(C)[nH]c(C(=O)CSc2nc3ccc(C)cc3[nH]2)c1C | -2.54
13 | Cc1ccc(-c2noc(-c3ccccc3C(=O)N3CCN(C)CC3)n2)cc1 | -51.2
14 | COc1ccc(CCNC(=O)Cn2cnc3sc(C)c(-c4ccc(F)cc4)c3c2=O)cc1OC | -25.5
15 | O=c1cc(Nc2ccc3c(c2)OCCO3)[nH]c(=O)n1Cc1ccc(F)cc1 | 0.78
16 | COc1ccc(CNC(=O)OCCN2CCN(Cc3ccccc3)CCC2=O)cc1 | -36.2
17 | OCCC1CN(Cc2nc(-c3ccccc3)cs2)CCN1Cc1ccc(F)cc1 (stereo not shown) | -69.8
18 | CCOc1ccc(N(C(C)C(=O)N/N=C(\C)C(C)(C)C)S(C)(=O)=O)cc1 (stereo not shown) | 1.74
19 | O=C(NCc1ccco1)/C(=C/c1ccco1)NC(=O)c1ccco1 | 3.07
20 | Cc1ccn2c(c1)nc(=O)c1cc(S(=O)(=O)N3CCOCC3)ccc12 | 9.59
21 | COc1ccccc1/C=N/NC(=O)c1ccc(NC(=O)c2ccccc2Br)cc1 | 3.86
22 | O=C(CNC(=O)c1ccccc1C(=O)O)c1ccccc1 | 1.52
23 | COc1cc(C2c3c([nH]c(=O)[nH]c3=O)Nc3ccc4ccccc4c32)ccc1O (stereo not shown) | -2.8
24 | O=C(O)c1cccc(N2C(=O)C3CC=CCC3C2=O)c1 (stereo not shown) | -3.16
25 | COc1ccc(CN2CCC(n3nccc3NC(=O)CCCc3ccccc3)CC2)cc1C | -93.3
26 | Cc1cc(C)c2c(N)c3cccc(C)c3nc2n1 | -64.7
27 | COc1ccc(C2N(S(=O)(=O)c3ccc(C)cc3)CCN2S(=O)(=O)c2ccc(C)cc2)cc1 | -11.1
28 | Cc1cc(C)c(C)c(S(=O)(=O)NC2CCN(Cc3ccccc3)CC2)c1C.Cl | 5.25

Row | Structure (SMILES) | hERG current change (%, negative = inhibition) at 10uM [%]
29 | O=C(NCCC(=O)N1CCCC(C(F)(F)F)C1)c1ccc(Br)cc1 (stereo not shown) | 4.48
30 | NC(=O)c1cccc(CS(=O)(=O)c2ccc(Cl)cc2)c1 | -4.75
31 | O=C(CCOc1ccccc1)Nc1nnc(-c2ccc3c(c2)OCCO3)o1 | 19.9
32 | C/C(=N\NC(=O)COc1cccc(Br)c1)c1ccc2c(c1)OCCO2 | 12.4
33 | CCCN(Cc1cc2cc(C)ccc2[nH]c1=O)C(=O)c1ccccn1 | 7.79
34 | Cc1nonc1C1CCCN1Cc1cn[nH]c1-c1ccc2c(c1)OCO2 (stereo not shown) | -25.6
35 | COc1ccc(S(=O)(=O)N2CCC(C(=O)NCc3ccccc3)CC2)cc1OC | 8.65
36 | C=CCNC(=O)C(=O)NCC(c1ccc2c(c1)OCO2)N1CCN(c2ccc(F)cc2)CC1 (stereo not shown) | 3.34
37 | O=C(Nc1cccc(Cl)c1N1CCOCC1)c1cccnc1 | -40.6
38 | CC(C)(C)c1ccc(-n2ncc3c2CCCC3NC(=O)C2(C(N)=O)CC2)cc1 (stereo not shown) | -29.1
39 | C/C(=N\NC(=O)c1nc2ccccn2c1C)c1cccc([N+](=O)[O-])c1 | -23.4
40 | C=CCNc1ncnc2c1cnn2-c1ccc(OC)cc1 | 2.55
41 | Cc1ccc(NC(=O)Cc2noc3ccccc23)c(C)c1 | 11.2
42 | O=[N+]([O-])c1cccc(S(=O)(=O)NC2CC3CCC2C3)c1 (stereo not shown) | 4.74
43 | COc1cccc(CN2CCN(CCCc3ccccc3)C(CCO)C2)c1O (stereo not shown) | -72.4
44 | Cc1ccc2nc(C3CCN(CC(=O)Nc4ccc5c(c4)OCCO5)CC3)[nH]c2c1 | -50.6
45 | Br.CCn1c(=N)n(CC(=O)c2ccco2)c2ccccc21 | -3.75
46 | COc1ccc(CN2CCC(CO)(CCOc3ccccc3)CC2)c(OC)c1C | -83.5
47 | O=C(CN1CCCC1)Nc1ccc(F)cc1 | 23.3
48 | O=C(Cc1c(O)c2ccccc2[nH]c1=O)NC1CCCCCC1 | 3.69
49 | Cc1ccc(NS(=O)(=O)c2ccc(NC(=O)c3ccc(Br)o3)cc2)c(C)c1 | -11.8
50 | CCCCCCn1c(SCCC)nc2c1c(=O)[nH]c(=O)n2C | -9.85
51 | O=S(Cc1cc(Sc2ccccc2)nc(-c2ccccc2)n1)c1ccccc1 (stereo not shown) | 10.7
52 | CCCCn1c(O)c(C(=O)/C=C/c2ccc3c(c2)OCO3)c(=O)[nH]c1=O | 8.55
53 | O=C(Cn1ccc(C(F)(F)F)n1)NNC(=O)c1ccco1 | 8.94
54 | COc1cc(-c2nnc(NC(=O)CCS(=O)(=O)c3ccc(F)cc3)o2)cc(OC)c1OC | 6.48
55 | Cc1nc(SCn2nnc3ccccc3c2=O)nc(C)c1C | -12.3
